According to patent publication US12655454B2, “Process for producing formate using oxygen-tolerant enzymes” (GWANGJU INSTITUTE OF SCIENCE AND TECHNOLOGY, priority 2022, dated 2026):

Substrate: NC(=O)c1ccc[n+]([C@@H]2O[C@H](COP(=O)([O-])OP(=O)(O)OC[C@H]3O[C@@H](n4cnc5c(N)ncnc54)[C@H](O)[C@@H]3O)[C@@H](O)[C@H]2O)c1
Assay: NAD^+-dependent H2 oxidation kinetics of ReSH (Michaelis-Menten)
Format: biochemical
Conditions: Kpi buffer pH 7.0, absorbance at 365 nm
[1] = other: 0% O2, NAD^+ varied 0 to 2 mM
[2] = other: 5% O2, NAD^+ varied 0 to 2 mM

B1: Ralstonia eutropha-derived hydrogenase (ReSH), wild type, SEQ ID NO: 1 to SEQ ID NO: 5 (Cupriavidus necator H16) (protein)
chain 1: MASWSHPQFEKGADSRITTILERYRSDRTRLIDILWDVQHEYGHIPDAVLPQLGAGLKLSPLDIRETASFYHFFLDKPSGKYRIYLCNSVIAKINGYQAVREALERETGIRFGETDPNGMFGLFDTPCIGLSDQEPAMLIDKVVFTRLRPGKITDIIAQLKQGRSPAEIANPAGLPSQDIAYVDAMVESNVRTKGPVFFRGRTDLRSLLDQCLLLKPEQVIETIVDSRLRGRGGAGFSTGLKWRLCRDAESEQKYVICNADEGEPGTFKDRVLLTRAPKKVFVGMVIAAYAIGCRKGIVYLRGEYFYLKDYLERQLQELREDGLLGRAIGGRAGFDFDIRIQMGAGAYICGDESALIESCEGKRGTPRVKPPFPVQQGYLGKPTSVNNVETFAAVSRIMEEGADWFRAMGTPDSAGTRLLSVAGDCSKPGIYEVEWGVTLNEVLAMVGARDARAVQISGPSGECVSVAKDGERKLAYEDLSCNGAFTIFNCKRDLLEIVRDHMQFFVEESCGICVPCRAGNVDLHRKVEWVIAGKACQKDLDDMVSWGALVRRTSRCGLGATSPKPILTTLEKFPEIYQNKLVRHEGPLLPSFDLDTALGGYEKALKDLEEVTR
chain 2: MSRKLVIDPVTRIEGHGKVVVHLDDDNKVVDAKLHVVEFRGFEKFVQGHPFWEAPMFLQRICGICFVSHHLCGAKALDDMVGVGLKSGIHVTPTAEKMRRLGHYAQMLQSHTTAYFYLIVPEMLFGMDAPPAQRNVLGLIEANPDLVKRVVMLRKWGQEVIKAVFGKKMHGINSVPGGVNNNLSIAERDRFLNGEEGLLSVDQVIDYAQDGLRLFYDFHQKHRAQVDSFADVPALSMCLVGDDDNVDYYHGRLRIIDDDKHIVREFDYHDYLDHFSEAVEEWSYMKFPYLKELGREQGSVRVGPLGRMNVTKSLPTPLAQEALERFHAYTKGRTNNMTLHTNWARAIEILHAAEVVKELLHDPDLQKDQLVLTPPPNAWTGEGVGVVEAPRGTLLHHYRADERGNITFANLVVATTQNNQVMNRTVRSVAEDYLGGHGEITEGMMNAIEVGIRAYDPCLSCATHALGQMPLVVSVFDAAGRLIDERAR
- Km [1]: 393 ± 41 µM
- kcat [1]: 39.7 ± 1.5 s⁻¹
- Km [2]: 364 ± 33 µM
- kcat [2]: 39.2 ± 1.3 s⁻¹
